Reference: PubChem BioAssay (NCATS)
The shares of active, inactive and inconclusive entries below differ from those in the screen. A potency beside an inconclusive call is a rough fit, not a confirmed value. Active and inactive are the calls of the source. Calls come from the whole dose curve; as a rule, active = well fitted inhibition curve with a large enough effect; inconclusive = small, poorly fitted or top-dose-only effect; inactive = no such curve, though single readings can be large or run the other way.

Molecular target: Muscarinic acetylcholine receptor M1 (Rattus norvegicus) (UniProt P08482)
Test: qHTS Assay for Antagonists of Acetylcholine Muscarinic M1 Receptor: Measurement of IP-One Response (AID 944); note: nearly all actives have a fitted effect of over 75% in size
Settings: CHO-M1 cells, IP-One HTRF, antagonist mode; series mostly up to 46.1 µM
Potency is the fitted concentration of half-maximal effect; tags give direction and shape of the fitted curve.

Sequence of UniProt P08482 (P08482 whole entry, looked up): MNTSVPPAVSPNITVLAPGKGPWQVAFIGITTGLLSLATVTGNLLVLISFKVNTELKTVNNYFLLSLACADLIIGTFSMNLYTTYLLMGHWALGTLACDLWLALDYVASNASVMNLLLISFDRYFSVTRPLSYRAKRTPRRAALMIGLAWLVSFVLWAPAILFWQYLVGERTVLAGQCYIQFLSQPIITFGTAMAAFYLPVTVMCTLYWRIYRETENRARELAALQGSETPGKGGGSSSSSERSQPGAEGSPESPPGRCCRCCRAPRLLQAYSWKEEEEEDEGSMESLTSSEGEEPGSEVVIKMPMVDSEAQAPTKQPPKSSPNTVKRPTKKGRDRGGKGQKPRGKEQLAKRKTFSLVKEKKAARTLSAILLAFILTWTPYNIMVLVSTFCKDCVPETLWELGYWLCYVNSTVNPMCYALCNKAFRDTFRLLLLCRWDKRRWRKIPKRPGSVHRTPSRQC

| SMILES | Potency |
| --- | --- |
| CNCC[C@H](Oc1ccccc1C)c1ccccc1 | inconclusive: 14.1 µM [inhibitor, partial curve, poor fit] |
| O[Si@](CCCN1CCCCC1)(c1ccc(F)cc1)C1CCCCC1 | active: 1.41 µM |
| C[C@@H](COc1ccc(/C=C\c2ccccc2)cc1)[N+](C)(C)C | active: 7.08 µM |
| CCCCCCCCCCCCCCCCCC(=O)O[C@H](CC(=O)O)C[N+](C)(C)C | inconclusive: 8.91 µM [inhibitor, full curve, poor fit] |
